# Source: article PMC4336329 (PLoS ONE, 2015)
# About 2,200 (0.71%) of roughly 310,000 compounds showed an effect of 50% or more. Effects have a minus sign here. Some of the results follow.
# Target: human ether-à-go-go-related gene (hERG) potassium channel (human, UniProt Q12809)
# Assay: primary screen, population patch clamp on CHO cells stably expressing hERG
# Chain of human ether-à-go-go-related gene (hERG) potassium channel (Q12809 whole entry, looked up): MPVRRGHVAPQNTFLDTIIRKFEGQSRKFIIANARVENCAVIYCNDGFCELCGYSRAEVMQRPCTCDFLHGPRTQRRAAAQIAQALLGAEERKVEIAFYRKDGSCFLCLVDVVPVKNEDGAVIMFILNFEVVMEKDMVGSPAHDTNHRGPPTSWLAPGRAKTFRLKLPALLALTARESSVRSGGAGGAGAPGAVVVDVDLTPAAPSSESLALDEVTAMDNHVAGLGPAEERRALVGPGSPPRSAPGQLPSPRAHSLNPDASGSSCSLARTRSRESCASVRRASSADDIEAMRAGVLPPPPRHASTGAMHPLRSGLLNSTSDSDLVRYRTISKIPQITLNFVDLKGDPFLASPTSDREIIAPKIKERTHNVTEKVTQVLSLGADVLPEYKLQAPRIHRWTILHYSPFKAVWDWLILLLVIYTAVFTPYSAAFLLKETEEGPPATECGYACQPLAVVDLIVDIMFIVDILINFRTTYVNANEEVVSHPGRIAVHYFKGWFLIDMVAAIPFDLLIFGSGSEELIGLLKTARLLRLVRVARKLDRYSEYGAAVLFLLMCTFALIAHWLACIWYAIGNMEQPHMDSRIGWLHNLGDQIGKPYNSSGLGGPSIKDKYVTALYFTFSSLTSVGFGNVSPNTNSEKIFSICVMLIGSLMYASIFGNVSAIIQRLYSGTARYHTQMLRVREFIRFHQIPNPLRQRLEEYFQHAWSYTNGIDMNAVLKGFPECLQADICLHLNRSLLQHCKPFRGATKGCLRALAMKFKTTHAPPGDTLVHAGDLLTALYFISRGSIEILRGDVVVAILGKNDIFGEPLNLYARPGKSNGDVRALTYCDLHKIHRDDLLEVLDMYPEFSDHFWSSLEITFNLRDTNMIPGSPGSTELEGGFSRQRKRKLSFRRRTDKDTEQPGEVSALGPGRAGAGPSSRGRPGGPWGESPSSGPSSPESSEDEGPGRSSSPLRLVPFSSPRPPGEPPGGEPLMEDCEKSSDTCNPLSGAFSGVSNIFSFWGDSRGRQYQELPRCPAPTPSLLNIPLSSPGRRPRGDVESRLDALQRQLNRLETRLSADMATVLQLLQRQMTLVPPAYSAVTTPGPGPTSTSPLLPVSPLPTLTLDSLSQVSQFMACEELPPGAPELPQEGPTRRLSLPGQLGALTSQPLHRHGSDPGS
row,Compound,"hERG current change (%, negative = inhibition) at 1uM [%]"
1,COc1cccc(NC(=O)c2cccc(C)c2[N+](=O)[O-])c1,4.58
2,S=C(c1nc2ccccc2[nH]1)N1CCOCC1,6.34
3,O=C(O)c1ccccc1C(=O)Nc1ccccc1,0.987
4,O=C(NC1CCN(S(=O)(=O)c2ccc(Cl)cc2)CC1)C1CCCCC1,6.91
5,Cc1cc(C)c2c(n1)SCC(=O)N2CC(=O)Nc1cccc(Cl)c1,4.74
6,O=C(NCCN1CCN(c2ccccc2)CC1)Nc1ccccc1Br,10.3
7,O=C(CCS(=O)(=O)c1ccccc1)Nc1ccc(N2CCOCC2)cc1,6.38
8,CC(=O)c1ccc(S(=O)(=O)NCC2(N3CCOCC3)CCCCC2)cc1,4.95
9,Cc1nc2ccc(NS(=O)(=O)c3ccc4c(c3)OCCO4)cc2s1,4.93
10,CC(=O)c1cc(C)ccc1OC(=O)c1ccncc1,11.6
11,O=C(CN1CCC(n2nnc3cc(C(F)(F)F)ccc32)CC1)NCc1cccs1,-56.9
12,Cc1nc(C)n(CC(O)COc2ccc3cc(Br)ccc3c2)n1 (stereo not shown),3.72
13,O=C(CCC(=O)N(c1ccccc1)C(C(=O)NC1CCCC1)c1ccncc1)Nc1cccnc1 (stereo not shown),7.56
14,Cn1cccc1Cc1nnc(SCC(=O)NCCc2ccccc2)n1-c1ccc(F)cc1,-6.24
15,O=C(Nc1cccnc1)c1ccc2nc(-c3ccccc3)c(-c3ccccc3)nc2c1,8.69
16,Cc1ccc(CSCCNC(=O)CN(c2ccccc2)S(C)(=O)=O)cc1,8.99
17,CCOc1ccc(NC(=O)N(CCC(C)C)C(C)c2ccco2)cc1 (stereo not shown),2.6
18,O=C(COC(=O)CC(NC(=O)c1ccccc1Cl)c1ccccc1)Nc1cccc(F)c1 (stereo not shown),-1.8
19,CSc1n[nH]c2nc3c(c(=O)n12)C1(CCCC1)Cc1ccccc1-3,3.82
20,O=C(OCC(=O)N1CCCC1)c1cc2c(cc1[N+](=O)[O-])OCCO2,2.43
21,CC1CN(C(=O)COC(=O)c2cc(S(N)(=O)=O)c(Cl)cc2Cl)CC(C)O1 (stereo not shown),6.48
22,COc1ccc(CNC(=O)CN(CC2CCCO2)C(=O)CNS(=O)(=O)c2ccccc2)cc1 (stereo not shown),-0.6

row,Compound,"hERG current change (%, negative = inhibition) at 1uM [%]"
1,NC(=O)c1ccccc1NC(=O)CS(=O)(=O)Cc1ccccc1,12.9
2,CCCCC(=O)Nc1cc(C)c(NC(=O)c2cccs2)cn1,3.07
3,Cc1cccc(NCC(=O)c2c(N)n(C)c(=O)n(C)c2=O)c1C,19.7
4,CCN(CC)S(=O)(=O)c1cccc(C(=O)NNC(=O)C2=NN(c3ccccc3)C(=O)CC2)c1,11.7
5,COc1cc(/C=N/n2c(COc3ccccc3)n[nH]c2=S)cc(OC)c1OC(C)=O,14.8
6,CC1(C)CC(=O)C2=C(C1)N(c1ccc(F)cc1)C(=O)C2(NC(=O)c1ccccc1F)C(F)(F)F (stereo not shown),-0.264
7,COc1ccc(C(=O)C2CCCN(C(=O)C3=CCCC3)C2)cc1OC (stereo not shown),10.8
8,O=C1CC(N2CCN(c3ccc(O)cc3)CC2)C(=O)N1Cc1cccs1 (stereo not shown),1.7
9,O=C(CCC(=O)Nc1ccccc1Cl)NNC(=O)COc1ccc([N+](=O)[O-])cc1,2.74
10,CC(C)Cc1cc(C(=O)N2CCCC(CO)(Cc3ccc(F)cc3F)C2)n[nH]1 (stereo not shown),16.2
11,Cc1ccc(C2N(c3cccc(Cl)c3)C(=O)C3CCCN32)o1 (stereo not shown),-1.45
12,CCOC(=O)c1c(C)[nH]c(C(=O)N/N=C/c2ccc(Br)cc2)c1C,12.7
13,O=C(Cc1ccccc1Cl)Nc1cccnc1,10.5
14,Cl.OC(COCc1cccs1)CN1CCCCCC1 (stereo not shown),-5.74
15,CCN(CC)C(=S)NC(=O)C12CC3CC(CC(C3)C1)C2,4.98
16,CCOC(=O)C1CCN(C(=O)CCS(=O)(=O)Cc2ccccc2)CC1,13.2
17,Cc1ccc(NC(=O)COc2ccc(/C=N\NC(=O)c3cccnc3)cc2)cc1C,10.1
18,CCCn1c(SCC(=O)NCc2ccco2)nnc1C(C)C,15.8
19,Cc1ccc(CNS(=O)(=O)c2cc3c4c(c2)CCN4C(=O)CC3)cc1,-6.32
20,CC(=O)N1c2ccc(S(=O)(=O)CCC(=O)O)cc2CC1C (stereo not shown),7.94
21,Cc1cc(C)c(-c2c(O)c3ccccc3n(C)c2=O)c(C)c1,10.9
22,CC(C)N1CC=C2C(C#N)=C(N)C(C#N)(C#N)[C@H](c3ccoc3)[C@H]2C1,2.04

row,Compound,"hERG current change (%, negative = inhibition) at 1uM [%]"
1,CCC1=Nc2ccccc2-c2nnc(SC)nc2O1,-12
2,CN(C(=O)CN1C(=O)c2cc(Cl)c(Cl)cc2C1=O)C1CCS(=O)(=O)C1 (stereo not shown),-7.83
3,COC(=O)c1ccc(CSc2ncnc3c2sc2nc(N4CCOCC4)c4c(c23)CCCC4)o1,8.01
4,C=CCNC(=O)CN(Cc1ccccc1)S(=O)(=O)c1ccc(C)cc1,6.86
5,Cc1cccc(CN2CCC(n3nccc3NC(=O)c3ccccc3C)CC2)n1,4.02
6,CC(=O)NC1=NN(C(C)=O)C(C)(c2cccs2)S1 (stereo not shown),7.58
7,O=C(N/N=C\c1ccncc1)c1ccc(Cl)s1,10.5
8,COc1cccc(CNC(=O)COC(=O)c2ccc(C(=O)c3ccccc3)cc2)c1,4.05
9,Cc1cccc(C)c1NC(=O)CN(C)C(=O)CSCc1c(C)noc1C,9.03
10,COc1ccc(S(=O)(=O)NCC2CCCN(C(=O)c3sccc3C)C2)cc1 (stereo not shown),8.55
11,C[C@H]1CCC[C@]2(O[C@H](CCO)C[C@H](O)[C@H]2O)O1,15.4
12,CCc1ccc(N(C(=O)CNC(=O)c2ccco2)C(C(=O)NCC2CCCO2)c2ccccc2)cc1 (stereo not shown),3.34
13,COc1ccc(OCc2cc(C(=O)NC(C)Cc3ccccn3)no2)c(Cl)c1 (stereo not shown),9.87
14,O=C(O)CCN(CCC(=O)O)c1nnc(SCc2ccccc2)s1,11.7
15,CCN(CC(=O)Nc1ccc(NC(C)=O)cc1)C(=O)/C=C/c1ccc(S(=O)(=O)N2CCCCCC2)cc1,9.94
16,COc1ccc(NC(=O)COC(=O)C2C3CC4OC(=O)C2C4C3)cc1 (stereo not shown),17.3
17,CC(=O)c1cc2c(cc1NC(=O)CCn1cnnn1)OCO2,8.44
18,CCC(=O)N1c2ccc(S(=O)(=O)N3CCN(c4ccccc4Cl)CC3)cc2CC1C (stereo not shown),15.3
19,CCOC(=O)N1CCN(C(=O)c2cc3n(n2)C(C(F)(F)F)CC(c2ccc4c(c2)OCO4)N3)CC1 (stereo not shown),12.4
20,Cc1ccc(C2NC(=S)NC3=C2C(=O)CCC3)cc1 (stereo not shown),11.9
21,Cc1cc(C(=O)N/N=C/c2ccccn2)n[nH]1,15.6
22,COc1ccc(-c2nc(C#N)c(N3CCN(c4cccc(Cl)c4)CC3)o2)cc1OC,14.2

row,Compound,"hERG current change (%, negative = inhibition) at 1uM [%]"
1,CC(C)CN1CCC(=O)N(CCN=[N+]=[N-])CC1,6.67
2,Cc1nc(Cl)sc1C(=O)Nc1ccc(Cl)cc1,2.35
3,O=C(O)C1=C[C@@H](c2ccc(Br)cc2)C[C@@H](OCCCCO)O1,11
4,OC1(Cc2ccccc2)CCNCC1,15.6
5,COc1ccc(NC(=O)CS(=O)CC(=O)Nc2ccc(-n3cnnn3)c(C)c2)cc1 (stereo not shown),11
6,O=C(Nc1ccccc1)Nc1nnc(/C=C/c2ccccc2Cl)s1,16.8
7,O=c1ccc2ccccc2n1Cc1cccc(F)c1,12.6
8,CCCCC1=CC2=CC(=O)C(C)(OC(=O)CC)C(=O)C2=CN1C1CCCCC1 (stereo not shown),4.1
9,C/C(=N\NS(=O)(=O)c1ccc([N+](=O)[O-])cc1)c1cccs1,12
10,CCOC(=O)C1CCCN(C(=O)c2cccc(S(=O)(=O)N3CCCC3)c2)C1 (stereo not shown),15.4
11,COc1ccc(CCNC(=O)COC(=O)c2cc(S(=O)(=O)N3CCCC3)ccc2O)cc1,1.5
12,CCCCCc1ccc(OCCCC[n+]2ccccc2)c(CCCCC)c1.[Cl-],-8.63
13,O=C(Oc1cc(=O)oc2ccccc12)c1ccccc1,10.2
14,Cc1n(CC(O)COCc2ccccc2)c2ccccc2[n+]1C.[I-] (stereo not shown),19.4
15,O=C(OCC(=O)N1CCN(C(=O)c2ccco2)CC1)c1ccccc1OCc1ccc(Cl)cc1,-6.07
16,CN(C(=O)c1ccccc1C(=O)OCC(=O)NC(=O)NC(C)(C)C)C1CCCCC1,6.73
17,Cc1ccc(NC(=O)CSc2nnc(-c3cnccn3)n2-c2ccccc2)cc1,18.1
18,Cl.O=C(CCN1Cc2ccccc2C1)c1ccc2c(c1)OCCO2,7.23
19,CSCCC(NC(=O)c1cccc([N+](=O)[O-])c1)C(=O)OCC(=O)N1CCCC1=O (stereo not shown),14
20,COc1ccc(OCC(=O)N/N=c2\oc3c(OC)cccc3cc2C(N)=O)cc1,5.79
21,CCC(=O)NCCc1cc2ccc(C)c(C)c2[nH]c1=O,7.75
22,O=C1NC2(NN1c1ccccc1)C1CC3CC(C1)CC2C3 (stereo not shown),2.73
